Laboratory results taken from PubChem BioAssay AID1346428 (National Center for Advancing Translational Sciences (NCATS), 2018).
The campaign covered roughly 48,000 compounds. About 1,200 (2.5%) were called active. Roughly 2% stayed inconclusive and do not appear here.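 How the source made its calls: active means activation of at least 60% and not above a set upper limit (about 1 call in 100 departs from these limits); inconclusive means activation of 40% to 60%, or above that upper limit; inactive means activation under 40%.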 This is one part of the list.

Biological target: Probable G-protein coupled receptor 32 (Homo sapiens) (UniProt O75388)
UniProt O75388, sequence (O75388 whole entry, looked up): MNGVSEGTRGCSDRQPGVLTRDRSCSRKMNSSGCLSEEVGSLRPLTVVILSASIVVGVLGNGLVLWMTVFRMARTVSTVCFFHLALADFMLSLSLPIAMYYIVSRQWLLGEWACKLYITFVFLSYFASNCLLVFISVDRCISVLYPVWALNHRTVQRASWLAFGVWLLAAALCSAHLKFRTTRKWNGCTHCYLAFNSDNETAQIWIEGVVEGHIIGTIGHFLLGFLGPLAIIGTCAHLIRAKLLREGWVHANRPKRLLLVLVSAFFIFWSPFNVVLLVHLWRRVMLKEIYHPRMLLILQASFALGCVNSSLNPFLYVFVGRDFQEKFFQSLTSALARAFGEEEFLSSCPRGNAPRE
Test: qHTS for Agonists of Human Resolvin D1 Receptor DRV1
Settings: CHO-K1 GPR32 beta-arrestin PathHunter luminescence, 90 min; at 76.9 µM; active compounds read high; zero percent set by DMSO-only wells
Text: Endogenous resolution of inflammation is known to be transduced through various GPCRs and their natural mediators of lipid nature. Resolvin D1 (RvD1) is one of the active players in resolution of acute inflammation through regulation of anti-inflammatory pathways; it is known to enhance phagocytosis of human macrophages, limits neutrophils infiltration, etc. […] The search for GPR32-activating small molecules with anti-inflammatory effects similar to its natural omega-3 derivative ligand in order to use them as research tools for further studies of inflammation and its resolution was the goal of this screening project. For primary screening assay, we used CHO-K1 GPR32 beta-arrestin cell line (DiscoveRx, #93-0321C2A) and the PathHunter(R) beta-Arrestin Assay (DiscoveRx) which measures recruitment of beta-arrestin to the GPR32 and generates chemiluminescent signal. These engineered cells stably transfected with GPR32 co-express GPR32-fused small 42-amino acid fragment of beta-Gal called ProLinktrade mark, and […] -tagged beta-Arrestin fusion protein. When GPR32 is activated by a ligand, it stimulates binding of beta -Arrestin to ProLink-tagged GPR32, and two parts of beta-Gal complement forming a functional enzyme. Upon substrate (PathHunter(R) Detection reagent) addition, beta-Gal hydrolyzes it and generates a chemiluminescent signal.
The cells were thawed and plated in thawing media containing F-12 HAM (Invitrogen, #11765-054), 10% FBS (Invitrogen, #10082), 1x Glutamine, and 1x Pen/Strep onto the 175-mm flask for 24 hours. Then, thawing media was replaced with Growth media which contains 800microg/mL Geneticin (Invitrogen, #10131) and 300microg/mL Hygromycin B (Invitrogen, #10687) in addition to described above. For the assay, the cells were harvested at ~80% confluent stage with Cell Dissociation buffer (Gibco, #13151), and seeded at 2,500 cells/ 3microL/well in assay media (PathHunter(R) Cell Plating Reagent, DiscoverX, #93-0563R1B) using MultiDrop Combi dispenser (Thermo Scientific, Logan, UT) onto white solid bottom tissue culture-treated 1536-well plates (Greiner # 789173-F) and allowed to attach overnight at 37 degrees C, 95% humidity, 5% CO2, . Next, 23nL/well of compound solutions in DMSO were added with a Pin Tool (Kalypsis, San Diego, CA) to the assay plates. As the basal control (EC0), 23 nL/well of DMSO was used on each plate. The cells were incubated in the presence of compounds or DMSO for 90 minutes at 37 degrees C, 5% CO2. Subsequently, 1.5microL/well of PathHunter(R) Detection Reagent prepared per the manufacturer's instructions was added to the assay plates with BioRAPTR FRDtrade mark dispenser (Beckman Coulter, San Francisco, CA) and incubated for 1 hour at ambient temperature prior to the measurement of the luminescent signal on ViewLux(R) uHTS Microplate Imager (Perkin Elmer, Waltham, MA).

activation, inactive:
COc1cc(NC(=O)CCc2nc(-c3cccs3)no2)cc(OC)c1OC 40.9%
Cc1ccc2c(=O)cc(C(=O)Nc3cccc(Cl)c3C)oc2c1C -6.76%
CCCCCOC(=O)CSc1ncnc2c1sc1nc(N3CCOCC3)c3c(c12)CCCC3 -5.45%
COc1ccc(OCCCCn2c(-c3ccc(Cl)cc3)nc3ccccc3c2=O)cc1 -4.52%
Cn1c(=O)c2c(-c3ccccc3Cl)n(-c3cc(Cl)ccc3O)cc2n(C)c1=O -12.2%
Cc1ccc(C(=O)CC2(O)C(=O)N(CCc3ccccc3)c3ccc(Cl)cc32)cc1 (centres undefined) 16.2%
Cc1cc(Nc2cccc(C)c2C)n2cnnc2n1 -3.38%
COc1ccc(Nc2ncc(C(=O)N3CCN(c4cccc(Cl)c4)CC3)c3ccccc23)cc1 37.6%
Cc1ccc(C)c(-n2c(CCC(=O)O)ccc2-c2ccc(Cl)cc2)c1 -6.15%
Cc1cccc(NC(=O)CSc2nc(-c3ccccc3)cn2-c2ccccc2)c1C -22.6%
CC(C)CC(C(=O)NCc1ccc(F)cc1)N1Cc2ccccc2C1=O (centres undefined) -13.6%
CCOc1ccc(-c2nc(SCC(=O)Nc3ccc(C)c(C)c3)n3[nH]c(=O)cc3n2)cc1 8.39%
Cc1ccc(C(C)C)c(OCC(=O)Nc2ccc(C(=O)OC3CCCCC3)cc2)c1 -6.9%
CCc1ccc2ncc3c(-c4ccc(F)cc4)nn(CC(=O)NCc4ccccc4)c3c2c1 2.73%
Cc1nc(C)c(-c2ccc(SCC(=O)Nc3ccc(C)c(F)c3)nn2)s1 40.9%
COc1ccc(CNC(=O)c2c(O)nc3cc(C)ccn3c2=O)cc1 -0.399%
Cc1ccc(/C=C/c2onc(C)c2S(=O)(=O)N2CCC(C(=O)NCc3ccc(C)o3)CC2)cc1 -20%
CCc1nnc(SCc2nc(-c3ccc(OC)c(OC)c3)oc2C)c2cc3sc(C)cc3n12 -8.02%
COc1cccc(CNC(=O)Cc2ccc(NC(=O)N3CCCCc4ccccc43)cc2)c1OC 13.5%
CC(=O)N1CCc2c(sc3c2c(=O)n(-c2ccccc2)c(=O)n3CC(=O)Nc2ccccc2C)C1 -10.8%
CCOc1ccc(NS(=O)(=O)c2ccc3[nH]cc(C(=O)N(C)Cc4ccccc4)c(=O)c3c2)cc1 -10.7%
COc1ccc2c(c1)CC(NC(=O)Nc1c(C)cc(C)cc1C)CO2 (centres undefined) -6.51%
Cc1ccccc1S(=O)(=O)Cc1ccc(C(=O)NC2CCCCC2)o1 16.2%
COc1ccc(NC(=O)c2oc3ccccc3c2NC(=O)c2cc3ccccc3o2)cc1 45.3%
CCOc1ccc(NC(=O)CSc2nnc3scc(-c4ccc(Cl)cc4)n23)cc1 15.9%
CCOc1cccc2cc(-c3nc4ccc(C(=O)O)cc4[nH]3)c(=O)oc12 -0.717%
Cc1cccc(-n2c3nc(=O)[nH]c(=O)c-3cc3c(Cl)cccc32)c1C 25%
COc1cc2oc(=O)c(CC(=O)N3CCCCC3)c(C)c2cc1Cl 2.02%
COc1ccc(C)cc1S(=O)(=O)N1CCN(c2cccc(Cl)c2)CC1 -8.6%
CCOC(=O)c1ccc2oc(=O)n(Cc3ccccc3)c2c1 -14%
CC(=O)Nc1ccc(C2Sc3ccccc3NC3=C2C(=O)c2ccccc23)cc1 (centres undefined) -56.2%
O=C(NCC(c1ccco1)S(=O)(=O)c1cccs1)c1ccc(F)cc1 (centres undefined) -8.81%
Cc1ccc(C)c(CN2C(=O)c3ccccc3S(=O)(=O)c3ccc(C(=O)N4CCCCCC4)cc32)c1 -16.2%
Cc1cc(C)c(NC(=O)c2cc3sc(Cl)cc3n2C)c(C)c1 -9.39%
COc1ccccc1CNC(=O)c1ccc(N2CCCC2)c(NC(=O)NCCC(C)C)c1 -24.2%
O=C(COc1ccc(F)cc1)Nc1ccc2nc(SCC(=O)N3CCc4ccccc43)sc2c1 -6.36%
COc1cccc(NC(=O)CSc2ncc(S(=O)(=O)c3ccc(C)c(C)c3)c(=O)[nH]2)c1 9.69%
Cc1oc2ncn(CC(C)C)c(=O)c2c1C(=O)NCCCN1CCCCC1 -3.44%
Cc1ccccc1OCC(=O)OCc1cc(=O)n2nc(C3CCCCC3)sc2n1 -12%
CC(=O)c1ccc(N2CCN(S(=O)(=O)c3ccc(-c4cc(C(F)(F)F)on4)s3)CC2)cc1 -0.311%
CSc1cccc(NC(=O)Cn2c3ncccc3c(=O)n2-c2ccc(C)cc2)c1 -12.7%
Cc1csc2nc(COc3ccccc3NC(=O)c3ccco3)cc(=O)n12 2.18%
CCc1c(-c2ccccc2)nc2ccccc2c1C(=O)NCCc1ccccc1 -24.9%
Nc1nc(OCc2ccccc2)c2[nH]cnc2n1 13.1%
Cc1ccc(-n2nnnc2CNC(=O)c2ccccc2S(C)(=O)=O)cc1C 1.94%
COc1ccc(-c2cn3nc(N4CCCC(C(=O)Nc5ccc(C)c(C)c5)C4)sc3n2)cc1 (centres undefined) -14.5%
FC(F)(F)c1cc(-c2ccccc2)nc2cc(-c3ccc(Br)cc3)nn12 43.2%
O=C(CCC(=O)OCC(=O)c1ccc(Cl)cc1)Nc1ccc(Oc2ccccc2)cc1 -41%
COC(=O)c1c(SCC(=O)Nc2cc(C)cc(C)c2)[nH]c2ccccc2c1=O 42.1%
CCc1ccc2occ(CC(=O)Nc3c(C(=O)Nc4ccc(C)cc4)oc4ccccc34)c2c1 1.67%
Cc1ccc(C(=O)n2nc(C)c(S(=O)(=O)N3CCOCC3)c2C)cc1 2.63%
COc1cccc(-c2nn(C)c3sc(C(=O)NCCc4ccc(Cl)cc4)cc23)c1 -0.636%
Cc1cc(S(=O)(=O)Nc2ccc(-c3ccc(N4CCCCC4)nn3)cc2)c(C)cc1Cl -0.403%

activation, active:
COCCn1ccc2c(OCC(=O)Nc3cccc(OC)c3)cccc2c1=O 72.7%
